This is an account of results in paper PMC4336329 (PLoS ONE, 2015).

In all, about 310,000 compounds went through this assay and about 14,000 (4.5%) showed an effect of 50% or more. Effects have a minus sign here. The list shows a part of the results.
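Further: peak tail current of the secondary pulse compared with the same well before compound.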

The target in the test is human ether-à-go-go-related gene (hERG) potassium channel (human, UniProt Q12809). Put plainly: primary screen, population patch clamp on CHO cells stably expressing hERG.
human ether-à-go-go-related gene (hERG) potassium channel, sequence (Q12809 whole entry, looked up): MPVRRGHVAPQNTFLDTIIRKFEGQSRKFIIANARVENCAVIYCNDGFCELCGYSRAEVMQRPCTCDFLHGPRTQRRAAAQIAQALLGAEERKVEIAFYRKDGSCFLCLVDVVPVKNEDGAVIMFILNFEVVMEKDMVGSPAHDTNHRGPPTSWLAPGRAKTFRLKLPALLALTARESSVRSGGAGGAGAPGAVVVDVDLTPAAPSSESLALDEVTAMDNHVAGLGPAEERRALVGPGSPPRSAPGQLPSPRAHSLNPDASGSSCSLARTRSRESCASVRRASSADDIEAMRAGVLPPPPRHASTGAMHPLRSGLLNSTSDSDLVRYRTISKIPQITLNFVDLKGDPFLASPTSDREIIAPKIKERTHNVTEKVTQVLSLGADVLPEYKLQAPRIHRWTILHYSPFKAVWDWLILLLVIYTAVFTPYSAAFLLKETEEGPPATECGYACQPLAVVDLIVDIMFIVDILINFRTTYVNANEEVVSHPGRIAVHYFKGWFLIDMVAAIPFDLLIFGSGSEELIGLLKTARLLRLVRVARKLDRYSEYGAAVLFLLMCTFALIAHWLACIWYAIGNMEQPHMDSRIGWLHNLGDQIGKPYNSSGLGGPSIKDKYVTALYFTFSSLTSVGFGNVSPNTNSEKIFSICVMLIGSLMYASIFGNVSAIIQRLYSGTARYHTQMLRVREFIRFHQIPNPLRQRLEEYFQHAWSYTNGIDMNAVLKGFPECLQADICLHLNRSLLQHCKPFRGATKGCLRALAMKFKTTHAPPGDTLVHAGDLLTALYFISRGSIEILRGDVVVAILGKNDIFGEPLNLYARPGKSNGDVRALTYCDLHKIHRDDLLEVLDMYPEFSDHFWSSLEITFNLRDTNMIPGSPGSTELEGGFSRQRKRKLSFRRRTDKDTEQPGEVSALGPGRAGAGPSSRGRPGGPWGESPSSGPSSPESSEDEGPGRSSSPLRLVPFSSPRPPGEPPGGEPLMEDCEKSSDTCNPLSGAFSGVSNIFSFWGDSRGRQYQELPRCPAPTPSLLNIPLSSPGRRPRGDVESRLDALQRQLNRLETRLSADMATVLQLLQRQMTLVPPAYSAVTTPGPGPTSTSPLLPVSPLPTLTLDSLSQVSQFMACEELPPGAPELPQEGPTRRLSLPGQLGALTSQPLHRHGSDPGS
For the molecule `O=C(COC(=O)c1ccc(Br)o1)Nc1ccc(S(=O)(=O)N2CCCC2)cc1`, the “hERG current change (%, negative = inhibition) at 10uM” value is reported as -7.8%.

For the molecule `O=C(NCc1cccs1)C(=O)c1cn(CC(=O)N2CCCC2)c2ccccc12`, the “hERG current change (%, negative = inhibition) at 10uM” value was 13.8%.

With `O=C(c1cccc([N+](=O)[O-])c1)N1CCCN(C(=O)c2cccc([N+](=O)[O-])c2)CC1`, the “hERG current change (%, negative = inhibition) at 10uM” value was -42%.

Take `COc1cc(CCC(=O)Nc2sccc2C#N)cc(OC)c1OC`: the “hERG current change (%, negative = inhibition) at 10uM” value is listed as 21.2%.

In the case of `CCOc1cc(C2Nc3ccccc3C(=O)N2c2ccccc2)c(Br)cc1OCC(=O)O` (stereo not drawn), the “hERG current change (%, negative = inhibition) at 10uM” value is recorded as -53.8%.

Take `O=C(CSCc1ccc(Br)cc1)NC1CC1`: the “hERG current change (%, negative = inhibition) at 10uM” value is listed as 19.6%.

Consider `CCC(C)NC(=O)c1cc2c(=O)n3ccccc3nc2s1` (stereo not drawn), for which the “hERG current change (%, negative = inhibition) at 10uM” value was -7.34%.

Regarding `O=C(/C=C/c1ccc2c(c1)OCO2)NCC1CCCO1` (stereo not drawn), the “hERG current change (%, negative = inhibition) at 10uM” value is 18.4%.

With `Cc1ccc(N(CC(=O)NC(C)(C)C)C(=O)CNC(=O)c2cccs2)cc1C`, the “hERG current change (%, negative = inhibition) at 10uM” value is reported as 10.9%.

Take `O=C1CCCc2c1nc(-c1ccccc1F)n2O`: the “hERG current change (%, negative = inhibition) at 10uM” value was determined as 3.86%.

With `O=C(COc1ccc([N+](=O)[O-])cc1)Nc1cc(C(=O)O)cc(C(=O)O)c1`, the “hERG current change (%, negative = inhibition) at 10uM” value was 27.1%.

As for `Cc1ccc2c(COC(=O)C34CC5CC(CC(C5)C3)C4)cc(=O)oc2c1`, the “hERG current change (%, negative = inhibition) at 10uM” value was -37%.

Turning to `O=C(c1ccc(NC2=NC3CS(=O)(=O)CC3S2)cc1)N(CCO)Cc1ccccc1` (stereo not drawn), the “hERG current change (%, negative = inhibition) at 10uM” value was determined as 21.7%.

With `COc1ccccc1CNC(=O)C(C)n1nc(C)c2c(C)n(-c3ccccc3)nc2c1=O` (stereo not drawn), the “hERG current change (%, negative = inhibition) at 10uM” value was -0.0415%.

On to `CCN(CC)c1ccc(C=C2C(=O)OC3(CCCCC3)OC2=O)cc1`, for which the “hERG current change (%, negative = inhibition) at 10uM” value was determined as 7.76%.

In the case of `CN(C)CC1(c2ccccc2)CCCC1.Cl`, the “hERG current change (%, negative = inhibition) at 10uM” value is reported as -5.91%.

As to `Cc1ccc(SCCC(=O)NCc2ccco2)cc1`, the “hERG current change (%, negative = inhibition) at 10uM” value is reported as -3.96%.

For the molecule `NC(=O)c1ccc(NC(=O)COC(=O)c2c3c(nc4ccccc24)/C(=C\c2cccs2)CCC3)cc1`, the “hERG current change (%, negative = inhibition) at 10uM” value came to 3.34%.

Turning to `CCCn1c(N)c(C(=O)COC(=O)c2cccc(S(=O)(=O)N3CCOCC3)c2)c(=O)[nH]c1=O`, the “hERG current change (%, negative = inhibition) at 10uM” value is listed as 1.95%.

On to `Cc1oc(-c2cccs2)nc1CS(=O)CC(=O)NC1CCCCCC1` (stereo not drawn), for which the “hERG current change (%, negative = inhibition) at 10uM” value stood at 5.08%.

For `N#Cc1cc(O)c(-n2nnc3ccccc32)cc1C#N`, the “hERG current change (%, negative = inhibition) at 10uM” value is 13.9%.

As to `Cc1ccc(C(=O)NNC(=O)c2n[nH]c(=O)c3ccccc23)cc1C`, the “hERG current change (%, negative = inhibition) at 10uM” value is -5.8%.

On to `COC(=O)CCCNC(=O)CC1C(=O)NCCN1Cc1ccoc1` (stereo not drawn), for which the “hERG current change (%, negative = inhibition) at 10uM” value turned out to be 22.1%.

As to `Cn1cccc1/C=C(\C#N)c1ccccc1`, the “hERG current change (%, negative = inhibition) at 10uM” value is on record as -11.4%.

Take `Cc1occc1C(=O)NCc1ccc(C(=O)O)o1`: the “hERG current change (%, negative = inhibition) at 10uM” value was -0.0815%.

As for `Cc1cc(C)cc(NS(=O)(=O)c2ccc3[nH]c(=O)ccc3c2)c1`, the “hERG current change (%, negative = inhibition) at 10uM” value is given as 7.42%.

As to `O=C1NCC(O)=C1C=NC12CC3CC(CC(C3)C1)C2` [4246017], the “hERG current change (%, negative = inhibition) at 10uM” value is recorded as 12.6%.

As for `Cc1ccc(Nc2c(F)c(F)c(F)c(F)c2C(=O)O)cc1`, the “hERG current change (%, negative = inhibition) at 10uM” value was determined as 13.8%.

For the molecule `O=C(COc1nncc2ccccc12)NCCC1=CCCCC1`, the “hERG current change (%, negative = inhibition) at 10uM” value worked out at 0.595%.

For `COc1ccc(C(C#N)c2ccc(Cl)nn2)cc1` (stereo not drawn), the “hERG current change (%, negative = inhibition) at 10uM” value is -2.07%.

Turning to `O=C(Nc1ccccc1C(F)(F)F)Nc1cccc2ccccc12`, the “hERG current change (%, negative = inhibition) at 10uM” value came to 1.48%.

Take `CCO.Cc1ccc(NC(=O)c2sc3nc(N)c(C#N)cc3c2N)cc1`: the “hERG current change (%, negative = inhibition) at 10uM” value is -14.1%.

As for `COC(=O)N/N=C(\C)c1cccc(C(F)(F)F)c1`, the “hERG current change (%, negative = inhibition) at 10uM” value was -13.2%.

With `CCO[C@@H]1OC(C(N)=O)=C[C@H](C(C)(C)C)[C@H]1CCCO`, the “hERG current change (%, negative = inhibition) at 10uM” value came out at 18.9%.

`COc1cc(C(=O)NNC(=O)C2CCC2)cc(OC)c1OC`: the “hERG current change (%, negative = inhibition) at 10uM” value is -7.32%.

Turning to `CCOC(=O)c1cn(CC(=O)Nc2ccccc2C(=O)OCC)nn1`, the “hERG current change (%, negative = inhibition) at 10uM” value was -9.76%.

For `Cc1cc(N2CCN(C(=O)c3ccco3)CC2)n2ncnc2n1`, the “hERG current change (%, negative = inhibition) at 10uM” value was -30.3%.

With `Br.COC(=O)C1=CCCN(C)C1`, the “hERG current change (%, negative = inhibition) at 10uM” value is -4.13%.

As to `Cc1ccc(-c2c(C)sc(NC(=O)C3C4CCC(O4)C3C(=O)O)c2C(=O)OC(C)C)cc1` (stereo not drawn), the “hERG current change (%, negative = inhibition) at 10uM” value is 2.21%.

`O=C(CSc1nnc2ccccn12)Nc1ncc(Cl)cc1Cl`: the “hERG current change (%, negative = inhibition) at 10uM” value is reported as 0.122%.

With `CC(=O)Nc1c(-c2ccccc2)nc2ccc(Cl)cn12`, the “hERG current change (%, negative = inhibition) at 10uM” value is 5.29%.

Turning to `CCc1ccc2oc(C(=O)Nc3nonc3CC)c(C)c2c1`, the “hERG current change (%, negative = inhibition) at 10uM” value was determined as 22.5%.

Take `O=C(NCCc1ccccc1)C1(S(=O)(=O)c2ccc(Cl)cc2)CC1`: the “hERG current change (%, negative = inhibition) at 10uM” value amounted to 6.29%.

Take `O=c1cc(N2CCN(c3ccc(F)cc3)CC2)[nH]c(=O)n1C1CCCCC1`: the “hERG current change (%, negative = inhibition) at 10uM” value was -4.71%.

In the case of `CC(COc1cccc2ccccc12)CN1CCN(C)CC1` (stereo not drawn), the “hERG current change (%, negative = inhibition) at 10uM” value was -30.1%.
